Experimental findings from the supplement of paper PMC6609913 are described below.

Structures can show the parent of a compound that is named as a salt. ± gives the standard deviation of the averaged measurements. The full ranking holds about 1,300 compounds; the median of “normalised cell viability” is about 1, and the lowest 2% start at about 0.15. Some of the results follow.

This assay concerns V-C8 + BRCA2 (BRCA2-proficient hamster cells). The experiment in a line: normalised cell viability (fraction of plate median); higher = more viable cells (less toxic). Conditions: 5 µM. The method, boiled down: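 Cell viability was measured with a resazurin assay, normalised to the plate median (modified robust per cent of sample) and averaged over triplicate wells. Hamster V-C8 cells lacking BRCA2 and V-C8 cells with BRCA2 restored were seeded in 96-well plates. After 24 h, library drugs from 10 mM DMSO stocks were added at a final 5 μM in 100 μl medium and left for 3 days (screen 1) or 6 days (screen 2), with solvent-only wells alongside.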

As for `CNCC(O)c1ccc(OC(=O)C(C)(C)C)c(OC(=O)C(C)(C)C)c1` (stereo unspecified) [Dipivefrin hydrochloride], the normalised cell viability is, setting by setting: (treatment time: 3 days) 0.968 ± 0.029; (treatment time: 6 days) 0.878 ± 0.089.
The like results for `CC(C)NC[C@@H](O)COc1cccc2ccccc12` [(R)-Propranolol hydrochloride] were, in that order, 1.01 ± 0.028 and 1.01 ± 0.056.
For `O=c1oc2ccccc2c(O)c1Cc1c(O)c2ccccc2oc1=O` [Dicumarol] the same measures were 1.03 ± 0.02 and 1.11 ± 0.12.
The like results for `CN1CCN(CCCN2c3ccccc3Sc3ccc(Cl)cc32)CC1` [Prochlorperazine dimaleate] were, in that order, 0.899 ± 0.051 and 0.943 ± 0.092.
For `Cc1nc(=O)c2cc(CN(C)c3ccc(C(=O)N[C@@H](CCC(=O)O)C(=O)O)s3)ccc2[nH]1` [Raltitrexed], the normalised cell viability is 0.357 ± 0.025 (treatment time: 3 days) and 0.351 ± 0.069 (treatment time: 6 days).
For `C[C@H](CCC(=O)O)[C@H]1CC[C@H]2[C@@H]3[C@H](O)C[C@@H]4C[C@H](O)CC[C@]4(C)[C@H]3CC[C@]12C` [Chenodiol] the same measures were 1.03 ± 0.068 and 1.12 ± 0.053.
The like results for `CN1CCN(c2c(F)cc3c(=O)c(C(=O)O)cn(CCF)c3c2F)CC1` [Fleroxacin] were, in that order, 1 ± 0.047 and 1.01 ± 0.019.
For `NNc1nncc2ccccc12` [Hydralazine hydrochloride], the normalised cell viability is, setting by setting: (treatment time: 3 days) 1.02 ± 0.021; (treatment time: 6 days) 0.971 ± 0.065.
The like results for `CC(=O)OCC(CCn1cnc2cnc(N)nc21)COC(C)=O` [Famciclovir] were, in that order, 1.02 ± 0.012 and 1.006 ± 0.0063.
For `COc1c2occc2c(OC)c2c(=O)cc(C)oc12` [Khellin] the same measures were 1.015 ± 0.01 and 1.07 ± 0.11.
The like results for `Nc1cc(C(Cl)=C(Cl)Cl)c(S(N)(=O)=O)cc1S(N)(=O)=O` [Clorsulon] were, in that order, 1.02 ± 0.07 and 1.09 ± 0.025.
Take `CC[C@H](C)C(=O)O[C@H]1CCC=C2C=C[C@H](C)[C@H](CC[C@@H]3C[C@@H](O)CC(=O)O3)[C@H]21` [Mevastatin]: the normalised cell viability came out at 0.246 ± 0.0034 (treatment time: 3 days) and 0.23 ± 0.011 (treatment time: 6 days).
For `CO[C@@H]1[C@@H](OC(N)=O)[C@@H](O)[C@H](Oc2ccc3c(O)c(NC(=O)c4ccc(O)c(CC=C(C)C)c4)c(=O)oc3c2C)OC1(C)C` [Novobiocin sodium salt] the same measures were 1.05 ± 0.076 and 1.03 ± 0.061.
The like results for `CCN1CCN(C(=O)N[C@@H](C(=O)N[C@@H]2C(=O)N3[C@@H]2SC(C)(C)[C@@H]3C(=O)O)c2ccccc2)C(=O)C1=O` [Piperacillin sodium salt] were, in that order, 1.11 ± 0.055 and 1.04 ± 0.1.
For `CCCC(=O)Nc1ncnc2c1ncn2[C@@H]1O[C@@H]2COP(=O)(O)O[C@H]2[C@H]1OC(=O)CCC` [Bucladesine sodium salt] the same measures were 1 ± 0.021 and 1.04 ± 0.019.
For the molecule `CN(C)CCC[C@@]1(c2ccc(F)cc2)OCc2cc(C#N)ccc21` [Escitalopram], the normalised cell viability (treatment time: 3 days) turned out to be 1.1 ± 0.041 and the normalised cell viability (treatment time: 6 days) came to 1.01 ± 0.067.
On to `CN1CCCC(n2nc(Cc3ccc(Cl)cc3)c3ccccc3c2=O)CC1` (stereo unspecified) [Azelastine HCl], for which the normalised cell viability (treatment time: 3 days) worked out at 0.946 ± 0.029 and the normalised cell viability (treatment time: 6 days) was determined as 1.02 ± 0.051.
The like results for `CN1CCCCC1CCN1c2ccccc2Sc2ccc([S+](C)[O-])cc21` (stereo unspecified) [Mesoridazine besylate] were, in that order, 1.028 ± 0.0076 and 1.08 ± 0.046.
The like results for `NC(=O)N/N=C/c1ccc([N+](=O)[O-])o1` [Nitrofural] were, in that order, 0.873 ± 0.01 and 0.862 ± 0.033.
As to `CC(=O)Oc1cccc2c1C(=O)c1c(OC(C)=O)cc(C(=O)O)cc1C2=O` [Diacerein], the normalised cell viability is, setting by setting: (treatment time: 3 days) 0.749 ± 0.038; (treatment time: 6 days) 0.796 ± 0.027.
For `C=C1C[C@H]2[C@@H]3C=C(C)C4=CC(=O)CC[C@]4(C)[C@H]3CC[C@]2(C)[C@@]1(OC(C)=O)C(C)=O` [Melengestrol acetate], the normalised cell viability is, setting by setting: (treatment time: 3 days) 1.04 ± 0.043; (treatment time: 6 days) 1.03 ± 0.054.
For `OC[C@H]1O[C@@H](Oc2ccc(O)cc2)[C@H](O)[C@@H](O)[C@@H]1O` [Arbutin] the same measures were 1.02 ± 0.05 and 0.979 ± 0.024.
For `Nc1ccc(S(=O)(=O)c2ccc(N)cc2)cc1` [Dapsone], the normalised cell viability is, setting by setting: (treatment time: 3 days) 1.11 ± 0.035; (treatment time: 6 days) 1.098 ± 0.0059.
The like results for `CN(C)CCc1c[nH]c2ccc(Cn3cncn3)cc12` [Rizatriptan benzoate] were, in that order, 0.999 ± 0.043 and 1.04 ± 0.05.
The like results for `OCCN1CCN(CCCN2c3ccccc3Sc3ccc(Cl)cc32)CC1` [Perphenazine] were, in that order, 1.03 ± 0.028 and 0.655 ± 0.39.
For `CC1(C)OC(=O)NC1=O` [Dimethadione] the same measures were 1.08 ± 0.064 and 0.964 ± 0.043.
Take `N=C(N)NCC1COC2(CCCCC2)O1` (stereo unspecified) [Guanadrel sulfate]: the normalised cell viability (treatment time: 3 days) was determined as 1.06 ± 0.038 and the normalised cell viability (treatment time: 6 days) was determined as 1.03 ± 0.041.
For `CCC[C@H](N[C@@H](C)C(=O)N1[C@H](C(=O)O)C[C@@H]2CCCC[C@@H]21)C(=O)OCC` [Perindopril] the same measures were 1.02 ± 0.021 and 1.05 ± 0.1.
For `Cn1nnnc1SCC1=C(C(=O)O)N2C(=O)[C@@H](NC(=O)[C@H](O)c3ccccc3)[C@H]2SC1` [Cefamandole sodium salt] the same measures were 1.07 ± 0.029 and 1.06 ± 0.1.
Turning to `COc1ccc(NS(=O)(=O)c2ccc(N)cc2)nn1` [Sulfamethoxypyridazine], the normalised cell viability was 0.879 ± 0.062 (treatment time: 3 days) and 0.892 ± 0.069 (treatment time: 6 days).
For `Nc1ccc(C(=O)NCC(=O)O)cc1` [Aminohippuric acid] the same measures were 1.04 ± 0.027 and 1.11 ± 0.076.
As to `CCN(CC)CCNC(=O)c1cc(S(C)(=O)=O)ccc1OC` [Tiapride hydrochloride], the normalised cell viability by setting is: (treatment time: 3 days) 1.02 ± 0.032; (treatment time: 6 days) 1.01 ± 0.045.
`O=C(CCCN1CC=C(n2c(=O)[nH]c3ccccc32)CC1)c1ccc(F)cc1` [Droperidol]: the normalised cell viability is, setting by setting: (treatment time: 3 days) 1.05 ± 0.013; (treatment time: 6 days) 1.07 ± 0.015.
